Measured values: a collection of fitness landscapes (doi:10.1016/j.celrep.2020.107928)
In all, about 81,000 sequences were measured (“one-hybrid fitness for binding parS DNA”: median about -0.17, highest 2% from about 0.51 on). This is one part of the list.

B1: Caulobacter ParB omega fusion; a variant is named by its letters at X, in order, B8GW30 (parent)
chain: MESVVVGEPGMSEGRRGLGRGLSALLGEVDAAPAQAPGEQLGGSREAPIEILQRNPDQPRRTFREEDLEDLSNSIREKGVLQPILVRPSPDTAGEYQIVAGERAWRAAQRAGLKTVPIMVRELDDLAVLEIGIIENVQRADLNVLEEALSYKVLMEKFERTQENIAQTIGKSXSHVANXMRLLXLPDEVQSYLVSGELTAXHARAIAAAADPVALAKQIIEGGLSVRETEALARKAPNLSAGKSKGGRPPRVKDTDTQALESDLSSVLGLDVSIDHRGSTGTLTITYATLEQLDDLCNRLTRGI

Variants of: B1
Assay: one-hybrid fitness for binding parS DNA (scaled: cognate 1, non-cognate 0); higher = stronger binding
Details: with parS DNA site
Procedure, shortened: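 Fitness here means the log change in variant-to-wild-type read ratio between plasmids sequenced before and after selection. That scale was set so cognate equals 1 and non-cognate equals 0. The selection was a bacterial one-hybrid screen of Caulobacter ParB libraries, four specificity codons randomised, in E. coli USO carrying a HIS3 reporter with the site 19 bp from the promoter, grown 48 hours at 37°C on M9-minus-histidine with 0.1 mM IPTG and 5 mM 3-AT.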

Variant	one-hybrid fitness for binding parS DNA
QREH	≤ 0.2
HIRR	≤ 0.2
QISG	≤ 0.2
HKSE	≤ 0.2
TNLY	≤ 0.2
SPYY	≤ 0.2
KPGT	≤ 0.2
FMVT	≤ 0.2
CMID	≤ 0.2
TAHK	≤ 0.2
FEEV	≤ 0.2
GRAF	≤ 0.2
KKRA	≤ 0.2
PHAE	≤ 0.2
SKDG	≤ 0.2
LDTD	≤ 0.2
SETM	≤ 0.2
FDTG	≤ 0.2
AFSM	≤ 0.2
STPM	≤ 0.2
VREF	≤ 0.2
PWTI	≤ 0.2
IQVN	≤ 0.2
NFYG	≤ 0.2
RHKR	≤ 0.2
KYPV	≤ 0.2

Variant	one-hybrid fitness for binding parS DNA
ESTC	≤ 0.2
IWPR	≤ 0.2
SRME	≤ 0.2
HVNS	≤ 0.2
TFDL	≤ 0.2
RQDE	≤ 0.2
TEGG	≤ 0.2
VTYG	≤ 0.2
RIRT	0.848
PVLQ	≤ 0.2
HGIL	≤ 0.2
ACAC	≤ 0.2
WRNN	≤ 0.2
CTHN	≤ 0.2
KPKC	≤ 0.2
IPGL	≤ 0.2
FLRI	≤ 0.2
HTPR	≤ 0.2
RQIW	≤ 0.2
LCTR	≤ 0.2
PCAC	≤ 0.2
LIRR	≤ 0.2
KGWS	≤ 0.2
LMKI	≤ 0.2
CYHW	≤ 0.2
RQLM	0.301

Variant	one-hybrid fitness for binding parS DNA
LKNY	≤ 0.2
PEPS	≤ 0.2
AILM	≤ 0.2
QSQR	≤ 0.2
CANT	≤ 0.2
PKTQ	≤ 0.2
QQRQ	≤ 0.2
SEAF	≤ 0.2
SSDL	≤ 0.2
RNVR	≤ 0.2
DIKT	≤ 0.2
FSWS	≤ 0.2
RRMI	≤ 0.2
TSRC	≤ 0.2
RQLP	≤ 0.2
LQTY	≤ 0.2
PNHT	≤ 0.2
WDRL	≤ 0.2
GVET	≤ 0.2
CMIS	≤ 0.2
VTRV	≤ 0.2
HDLR	≤ 0.2
GPAV	≤ 0.2
PYPK	≤ 0.2
RMMC	0.992
YGSV	≤ 0.2

Variant	one-hybrid fitness for binding parS DNA
PNWS	≤ 0.2
LGNV	≤ 0.2
MNLL	≤ 0.2
PTCF	≤ 0.2
STTW	≤ 0.2
FNAS	≤ 0.2
VRFG	≤ 0.2
NGGR	≤ 0.2
PEAL	≤ 0.2
ATDG	≤ 0.2
CTYR	≤ 0.2
QNHP	≤ 0.2
IRYM	≤ 0.2
QDSW	≤ 0.2
WVEG	≤ 0.2
PTEL	≤ 0.2
ELTK	≤ 0.2
ASPD	≤ 0.2
VALM	≤ 0.2
NYTH	≤ 0.2
NMVG	≤ 0.2
KMYG	≤ 0.2
LSRW	≤ 0.2
KRIH	≤ 0.2
WILS	≤ 0.2
HLAY	≤ 0.2

Variant	one-hybrid fitness for binding parS DNA
CKKS	≤ 0.2
KFIS	≤ 0.2
RSIQ	≤ 0.2
KKQG	≤ 0.2
TKMC	≤ 0.2
CCDY	≤ 0.2
NMNV	≤ 0.2
YNGL	≤ 0.2
GNLP	≤ 0.2
KYFM	≤ 0.2
HVRC	≤ 0.2
AKST	≤ 0.2
CVDD	≤ 0.2
GITM	≤ 0.2
LNMV	≤ 0.2
TSMK	≤ 0.2
RGVR	≤ 0.2
RAMN	0.41
PAGE	≤ 0.2
RMKE	≤ 0.2
DDRV	≤ 0.2
IWTC	≤ 0.2
VRRI	≤ 0.2
TKPP	≤ 0.2
PPSA	≤ 0.2
MNRD	≤ 0.2

Variant	one-hybrid fitness for binding parS DNA
EADV	≤ 0.2
QCAN	≤ 0.2
VLYS	≤ 0.2
RLHF	0.225
PLRC	≤ 0.2
IEDE	≤ 0.2
PFKV	≤ 0.2
LDTF	≤ 0.2
NDQE	≤ 0.2
YWHY	≤ 0.2
CWHL	≤ 0.2
LLMT	≤ 0.2
LIGN	≤ 0.2
KMTR	≤ 0.2
HVHS	≤ 0.2
RKFR	≤ 0.2
EKHT	≤ 0.2
PAVR	≤ 0.2
QMDR	≤ 0.2
FRER	≤ 0.2
DAFP	≤ 0.2
RRKH	0.623
KSPC	≤ 0.2
